# Reference: PMC4336329 (PLoS ONE, 2015)
# Out of some 310,000 compounds screened, about 2,200 (0.71%) showed an effect of 50% or more. The effect is printed as a negative number. The list shows a part of the results.
# Biological target: human ether-à-go-go-related gene (hERG) potassium channel (human, UniProt Q12809)
# Experiment: primary screen, population patch clamp on CHO cells stably expressing hERG
# Chain of human ether-à-go-go-related gene (hERG) potassium channel (Q12809 whole entry, looked up): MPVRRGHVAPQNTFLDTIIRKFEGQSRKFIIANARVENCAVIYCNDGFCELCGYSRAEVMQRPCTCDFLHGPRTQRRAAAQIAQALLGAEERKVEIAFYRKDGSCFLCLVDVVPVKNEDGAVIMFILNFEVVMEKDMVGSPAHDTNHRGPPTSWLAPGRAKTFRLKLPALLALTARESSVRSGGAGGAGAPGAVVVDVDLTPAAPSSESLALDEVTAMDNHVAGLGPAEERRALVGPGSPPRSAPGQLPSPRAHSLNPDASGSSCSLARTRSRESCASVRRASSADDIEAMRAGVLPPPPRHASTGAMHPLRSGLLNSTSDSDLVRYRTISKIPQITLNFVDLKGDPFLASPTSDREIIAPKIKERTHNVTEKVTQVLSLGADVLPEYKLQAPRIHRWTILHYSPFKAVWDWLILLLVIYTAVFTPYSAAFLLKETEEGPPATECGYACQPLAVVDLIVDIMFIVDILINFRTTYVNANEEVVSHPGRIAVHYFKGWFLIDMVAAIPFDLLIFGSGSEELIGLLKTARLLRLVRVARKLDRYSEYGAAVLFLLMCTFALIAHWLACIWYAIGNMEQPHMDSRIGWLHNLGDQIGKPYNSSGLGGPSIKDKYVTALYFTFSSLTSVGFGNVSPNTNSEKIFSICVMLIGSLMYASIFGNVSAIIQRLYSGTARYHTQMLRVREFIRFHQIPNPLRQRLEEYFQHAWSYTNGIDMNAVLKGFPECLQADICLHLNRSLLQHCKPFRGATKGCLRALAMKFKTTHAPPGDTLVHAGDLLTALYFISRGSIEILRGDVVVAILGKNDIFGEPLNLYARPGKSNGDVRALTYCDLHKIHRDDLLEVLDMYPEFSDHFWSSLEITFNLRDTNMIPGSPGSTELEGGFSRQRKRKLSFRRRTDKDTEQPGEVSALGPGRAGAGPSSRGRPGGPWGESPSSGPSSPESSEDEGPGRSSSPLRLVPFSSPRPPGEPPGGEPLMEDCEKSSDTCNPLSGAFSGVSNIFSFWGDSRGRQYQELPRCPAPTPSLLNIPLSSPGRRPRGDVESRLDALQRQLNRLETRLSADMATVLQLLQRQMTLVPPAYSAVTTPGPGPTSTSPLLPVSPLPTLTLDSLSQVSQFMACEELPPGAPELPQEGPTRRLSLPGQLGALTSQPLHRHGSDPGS
row,SMILES,"hERG current change (%, negative = inhibition) at 1uM [%]"
1,COC(=O)c1ccn(CSc2c(F)c(F)cc(F)c2F)n1,11.8
2,Nc1nc(Br)c2c(F)cccc2c1-c1ccc(Cl)cc1,-14.6
3,Cc1cccc(C)c1-n1c(C)nn(Cc2ccc([N+](=O)[O-])cc2)c1=O,-0.849
4,CC(C)c1ccc(Nc2ccc(C(=O)O)cc2[N+](=O)[O-])cc1,18.8
5,COC(=O)c1ccc(COc2cc([N+](=O)[O-])cc3cccnc23)cc1,20.7
6,COC(=O)C1=C[C@@H](C(=O)OC)[C@@H]2C3=C(C(=O)[C@]2(CC(C)C)NC(=O)c2ccccc2)[C@H](C)n2c(=O)n(-c4ccccc4)c(=O)n2[C@@H]3C1,8.34
7,CN(C(=O)COC(=O)c1cc(Br)c(Br)s1)C1CCS(=O)(=O)C1 (centres unmarked),0.432
8,COc1cccc(C(=O)N2CCN(Cc3ccc(OC)cc3OC)CC2)c1.O=C(O)C(=O)O,1.53
9,Cc1cccc(C(=O)N2CCc3cc(-c4nc(NC(=O)CN5CCCC5)sc4C)ccc32)c1,5.02
10,Cc1ccc(C)c(OCCC(=O)NNC(=O)Cn2nc(C)cc2C)c1,17.5
11,CCc1nnc(NC(=O)c2ccc(OC)cc2OC)s1,14.5
12,Cn1cc(S(=O)(=O)N2CCCC2)cc1C(=O)N1CCN(c2ccccc2)CC1,-4.2
13,CCN1CCN(CCC(=O)Nc2ccc(Br)cc2)CC1.Cl,-4.85
14,N#Cc1ccccc1OCC(=O)NCC1(N2CCCCC2)CCCCC1,2.59
15,CCN(c1ccc(NC(=O)c2ccc(N3CCCC3=O)cc2)cc1)C(C)C,-4.5
16,COc1ccc(C(CC(=O)Nc2cc(C)ccn2)N2Cc3ccccc3C2=O)cc1 (centres unmarked),14.8
17,CC(C)(C)c1ccc(C(=O)N2CCCN(c3ccc([N+](=O)[O-])cn3)CC2)cc1,-6.87
18,O=C(NCc1ccc(F)cc1)c1cccc2c1C(=O)N(Cc1cccnc1)C2,-17
19,Cc1cc(C)nc(NS(=O)(=O)c2cccs2)c1,11.1
20,Cn1ncc(Cl)c1C(=O)N1CCOCC1,10.2
21,O=C(CNC(=O)c1cccs1)NCC(=O)OCC(=O)c1ccc([N+](=O)[O-])cc1,5.43
22,Cn1c(SCC(=O)Nc2ccc(N3CCOCC3)cc2)nnc1C(F)(F)F,13.7

row,SMILES,"hERG current change (%, negative = inhibition) at 1uM [%]"
1,COc1ccc(Cc2nc3ccc(C(=O)NC(C)c4cn(C)nc4C)cc3o2)cc1 (centres unmarked),9.59
2,COc1ccc(C2CC(c3ccc(Cl)cc3Cl)n3nc(N)nc3N2)cc1 (centres unmarked),3.63
3,CCN1CC(CN(C)Cc2nc(Cc3ccccc3)no2)CC1=O (centres unmarked),3.51
4,CC(=O)c1c(N2CCN(C(=O)c3ccco3)CC2)nc(=S)n(-c2ccccc2)c1C,4.55
5,Cn1cnc2nc3n(c2c1=O)CCC3,5.69
6,O=c1nc2c(-c3cccc(Br)c3)n[nH]n2c2ccccc12,6.61
7,CCOC(=O)c1c(C)n(C)c2ccc(OC)c(NC(=O)CN3CCCCC3)c12,2.9
8,O=C1c2ccccc2C(=O)N1c1cc([N+](=O)[O-])ccn1,17
9,Cc1ccc2c(c1)cc(CN(Cc1ccc3c(c1)OCO3)S(=O)(=O)c1ccccc1)c1nnnn12,16.7
10,CC1Cc2cc(/C=C3/SC(N4CCC(C(N)=O)CC4)=NC3=O)ccc2O1 (centres unmarked),9.18
11,Cc1ccc(CNC(=O)CCNS(=O)(=O)c2ccc(Br)s2)cc1,16.9
12,Cc1cccc(-n2ccnc2SCC(=O)c2c(N)n(C3CC3)c(=O)[nH]c2=O)c1C,0.846
13,COC(=O)c1ccc(OC(=O)c2cccnc2)cc1,19.8
14,COc1ccc(C(=O)OCC(=O)NCc2ccccc2)c(OC)c1OC,11.1
15,CC1CC(C)CN(C(=O)Nc2ccc(Br)cc2)C1 (centres unmarked),6.78
16,CCCCNC(=O)[C@@H]1CC=C[C@@H]2CCN(C3CC3)C(=O)[C@@H]21,13.2
17,Cc1c(C(=O)N2CC[C@@H](N3CCC(O)CC3)[C@H](O)C2)[nH]c2ccc(Cl)cc12,10.2
18,CN1CCN(S(=O)(=O)c2cccc(C(=O)N3CCc4ccccc43)c2)CC1,-4.92
19,COc1cccc(C(=O)NC2CC3CCCC(C2)N3CC(=O)Nc2ccccc2C(F)(F)F)c1 (centres unmarked),14.8
20,Nc1ccc(C#Cc2c(-c3ccsc3)oc3ccc(N4CCOCC4)cc23)cc1,8.71
21,O=C(CC1C(=O)NCCN1Cc1ccc(F)cc1)NCCN1CCCc2ccccc21 (centres unmarked),-30.9
22,COc1ccc(S(=O)(=O)N(c2onc(C)c2Cl)S(=O)(=O)c2ccc(OC)c(OC)c2)cc1OC,14.6
